# PubChem BioAssay (Tox21)
# Values joined by “and” are separate entries in the source; they are usually repeats but may differ in a detail not shown here. Equal entries are not always repeated. The inconclusive results got no clear call from the source; some entries with a clear call stand among them for comparison. For part of these data: A potency beside an inconclusive call is a rough fit, not a confirmed value. The source holds several records for some structures; these can differ, active in one and inactive in another. Active and inactive are the calls of the source. Calls follow the shape of the dose curve; as a rule, active = well fitted curve in the direction sought with a large enough effect in the repeat runs; inconclusive = weak or mixed curves; inactive = no such curve, though single readings can be large; an effect the other way counts as inactive or inconclusive.
# Assays:
# [1] = Caspase-3/7 induction in CHO-K1 cells by small molecules, qHTS cell viability counter screen (AID 1346979); also: nearly all actives have a fitted effect of over 35% in size
# How it was run: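 Wild-type CHO-K1 cells (1,500/well) treated with compound after 5 h plating; after 16 h at 37C, viability read as CellTiter-Fluor fluorescence following 1 h reagent incubation, in the same wells as the caspase read.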
# [2] = molecular target: Nuclear receptor subfamily 1 group I member 2 (Homo sapiens) (UniProt O75469); assay: Human pregnane X receptor (PXR) small molecule agonists, qHTS assay (AID 1346982); also: nearly all actives have a fitted effect of over 35% in size; as to activation: % is scaled to controls: 0 for no effect and ±100 for the full control effect
# How it was run: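 Stable HepG2 line reporting PXR-mediated CYP3A4 expression via luciferase. Treatment: 24 hr with compounds in DMSO at 37 C. Detection: ONE-Glo luminescence.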
# [3] = molecular target: Nuclear receptor subfamily 1 group I member 2 (Rattus norvegicus) (UniProt Q9R1A7); assay: Rat pregnane X receptor (rPXR) activation by small molecules, qHTS assay (AID 1346983); conditions: rPXR luciferase reporter cells, One-Glo luminescence, 24 h; max activation: stronger effect = higher value; also: nearly all actives have a fitted effect of over 20% in size; as to max activation: % is scaled to controls: 0 for no effect and ±100 for the full control effect
# How it was run: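 Luminescent readout (One-Glo luciferase, 30 min room temperature) followed 24 hr compound treatment at 37 C of rPXR cells plated 2,000 per well and preincubated 5hr; qHTS format with compounds delivered in DMSO.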
# [4] = molecular target: Nuclear receptor subfamily 1 group I member 2 (Homo sapiens) (UniProt O75469); assay: CYP3A4 induction through human pregnane X receptor (PXR) by small molecules, qHTS assay (AID 1346984); also: nearly all actives have a fitted effect of over 40% in size
# How it was run: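 After 24 h at 37C with compound, DPX-2 cells (HepG2, co-transfected PXR response element and CYP3A4 promoter-luciferase) got 3uM final P450-Glo Luciferin-IPA for 3 h; One-Glo luminescence followed.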
# [5] = molecular target: Cytochrome P450 2C19 (Homo sapiens) (UniProt P33261); assay: Cytochrome P450 Family 2 Subfamily C Member 19 (CYP2C19) small molecule antagonists: luciferase reporter qHTS assay (AID 1671197); also: nearly all actives have a fitted effect of over 65% in size
# How it was run: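 CYP2C19 P450-Glo, 1536-well qHTS. Cpd + enzyme/proluciferin substrate 10 min RT; + NADPH regen, 37C 1 h; stop with luciferin detection reagent, 20 min RT, luminescence (RLU). Pos ctrl ketoconazole.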
# [6] = Caspase-3/7 induction in HepG2 cells by small molecules, qHTS cell viability counter screen (AID 1346981); also: nearly all actives have a fitted effect of over 30% in size
# How it was run: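 Treatment of HepG2 cells with DMSO-delivered compounds ran 16 hr at 37 C following a 5-hr pre-incubation of 2,000 cells/well. CellTiter-Fluor fluorescence, read after 1 hr, served as the viability measure in a qHTS format.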
# [7] = molecular target: Nuclear receptor subfamily 1 group I member 2 (Homo sapiens) (UniProt O75469); assay: Human pregnane X receptor (PXR) activation by small molecules, qHTS assay (AID 1346985); also: nearly all actives have a fitted effect of over 40% in size; as to activation: % is scaled to controls: 0 for no effect and ±100 for the full control effect
# How it was run: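 DPX-2 cells (HepG2 co-transfected with a PXR response element and a CYP3A4-promoter luciferase construct) were seeded at 2,000 per well, rested 5 hr at 37C, then exposed to DMSO-dissolved compounds for 24 hr. Activation was read as luciferase luminescence.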
# [8] = molecular target: Cytochrome P450 2D6 (Homo sapiens) (UniProt P10635); assay: Cytochrome P450 Family 2 Subfamily D Member 6 (CYP2D6) small molecule antagonists: luciferase reporter qHTS assay (AID 1671196); also: nearly all actives have a fitted effect of over 50% in size
# How it was run: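 Chemicals tested for interference with CYP2D6 activity; proluciferin substrate, NADPH regeneration, 1 h at room temperature, luminescent detection.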
# Potency is read from the fitted curve at half-maximal effect; tags tell the direction and shape of the fitted curve.
# Sequence of UniProt P33261 (P33261 whole entry, looked up): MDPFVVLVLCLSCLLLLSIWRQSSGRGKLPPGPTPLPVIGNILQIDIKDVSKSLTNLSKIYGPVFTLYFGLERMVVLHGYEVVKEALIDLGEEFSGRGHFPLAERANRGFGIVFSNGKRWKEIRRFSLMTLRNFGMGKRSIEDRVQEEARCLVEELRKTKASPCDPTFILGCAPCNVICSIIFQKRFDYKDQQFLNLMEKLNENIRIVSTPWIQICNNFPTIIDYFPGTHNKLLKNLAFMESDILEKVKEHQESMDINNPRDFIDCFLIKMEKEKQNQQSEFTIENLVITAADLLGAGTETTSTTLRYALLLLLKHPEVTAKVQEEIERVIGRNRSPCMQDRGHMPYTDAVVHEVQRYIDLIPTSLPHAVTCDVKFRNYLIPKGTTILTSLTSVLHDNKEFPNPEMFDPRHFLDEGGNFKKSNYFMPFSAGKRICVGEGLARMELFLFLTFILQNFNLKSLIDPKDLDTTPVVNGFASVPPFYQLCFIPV
# Sequence of UniProt Q9R1A7 (Q9R1A7 whole entry, looked up): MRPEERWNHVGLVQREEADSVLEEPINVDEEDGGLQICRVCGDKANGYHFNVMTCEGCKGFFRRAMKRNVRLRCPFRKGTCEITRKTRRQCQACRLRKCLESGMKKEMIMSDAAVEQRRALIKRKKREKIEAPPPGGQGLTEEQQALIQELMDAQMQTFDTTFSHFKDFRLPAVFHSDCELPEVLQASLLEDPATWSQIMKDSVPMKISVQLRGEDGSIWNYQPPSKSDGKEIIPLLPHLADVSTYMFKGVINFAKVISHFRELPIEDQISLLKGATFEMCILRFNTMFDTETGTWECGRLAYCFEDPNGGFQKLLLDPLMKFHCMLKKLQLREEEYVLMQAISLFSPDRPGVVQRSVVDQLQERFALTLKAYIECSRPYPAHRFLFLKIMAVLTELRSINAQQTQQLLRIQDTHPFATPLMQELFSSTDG
# Sequence of UniProt P10635 (P10635 whole entry, looked up): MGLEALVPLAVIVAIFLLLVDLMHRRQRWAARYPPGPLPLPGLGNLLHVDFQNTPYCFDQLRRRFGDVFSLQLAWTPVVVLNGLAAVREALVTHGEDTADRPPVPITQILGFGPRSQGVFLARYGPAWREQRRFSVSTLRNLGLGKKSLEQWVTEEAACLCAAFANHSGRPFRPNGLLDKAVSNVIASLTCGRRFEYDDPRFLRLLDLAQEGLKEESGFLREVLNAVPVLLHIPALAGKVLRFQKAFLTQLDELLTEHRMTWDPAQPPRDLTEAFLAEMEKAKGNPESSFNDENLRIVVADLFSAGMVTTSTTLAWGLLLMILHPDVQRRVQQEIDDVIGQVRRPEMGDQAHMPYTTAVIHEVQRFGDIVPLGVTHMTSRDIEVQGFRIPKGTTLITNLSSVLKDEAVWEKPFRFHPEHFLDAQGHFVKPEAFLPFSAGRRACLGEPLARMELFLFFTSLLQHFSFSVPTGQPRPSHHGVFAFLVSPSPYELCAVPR
compound,measurement,setting,value
CC(C)OC(=O)C(C)(C)Oc1ccc(C(=O)c2ccc(Cl)cc2)cc1,Potency,[1],"inconclusive: 33.5 µM [cytotoxic, single point]"
same,Potency,[2],"inconclusive: 33.5 µM [activator, single point]"
O=C1Cc2cc(CCN3CCN(c4nsc5ccccc45)CC3)c(Cl)cc2N1,Potency,[1],inconclusive: 33.5 µM [cytotoxic]
same,Potency,[2],"inconclusive: 11.9 µM [activator, partial curve, poor fit]"
same,max activation,[3],inactive: -10.8%
same,Potency,[4],"inconclusive: 17.8 µM [activator, partial curve]"
same,Potency,[5],active: 21.9 µM
C[C@]12C=CC(=O)C=C1CC[C@@H]1[C@@H]2[C@@H](O)C[C@@]2(C)[C@H]1CC[C@]2(O)C(=O)CO,Potency,[1],"inconclusive: 67.6 µM [rising, partial curve, poor fit]"
same,Potency,[6],"inconclusive: 13.3 µM [rising, partial curve, poor fit]"
same,Potency,[2],"inconclusive: 53.7 µM [activator, partial curve, poor fit]"
same,Potency,[3],"inconclusive: 15.8 µM [activator, partial curve]"
same,Potency,[4],"inconclusive: 0.178 µM [activator, full curve, poor fit]"
same,Potency,[7],inactive
Cc1cc2nc3c(=O)[nH]c(=O)nc-3n(C[C@H](O)[C@H](O)[C@H](O)CO)c2cc1C,Potency,[1],"inconclusive: 53.9 µM [rising, partial curve] and inconclusive: 28.4 µM [rising, partial curve] and inconclusive: 14.6 µM [rising, partial curve]"
same,Potency,[6],"inconclusive: 48.1 µM [rising, partial curve] and inconclusive: 28.4 µM [rising, partial curve] and inconclusive: 14.6 µM [rising, partial curve]"
same,Potency,[4],"inconclusive: 14.1 µM [activator, single point]"
CC[C@]1(O)C[C@H]2CN(CCc3c([nH]c4ccccc34)[C@@](C(=O)OC)(c3cc4c(cc3OC)N(C=O)[C@H]3[C@@](O)(C(=O)OC)[C@H](OC(C)=O)[C@]5(CC)C=CCN6CC[C@]43[C@@H]65)C2)C1,Potency,[1],"inconclusive: 0.119 µM [cytotoxic, full curve]"
same,Potency,[6],"inconclusive: 33.5 µM [cytotoxic, single point]"
same,Potency,[2],"inconclusive: 1.33 µM [activator, partial curve]"
same,Potency,[3],"inconclusive: 3.55 µM [activator, full curve, poor fit]"
same,Potency,[4],"inconclusive: 3.55 µM [activator, full curve, poor fit]"
same,Potency,[7],active: 8.91 µM
same,Potency,[8],inactive
Nc1ccc2c(c1)C(=O)c1ccccc1C2=O,Potency,[1],active: 53.5 µM and active: 54.5 µM
same,Potency,[6],"inconclusive: 21.7 µM [cytotoxic, partial curve]"
same,Potency,[8],"inconclusive: 31.1 µM [inhibitor, full curve] and inconclusive: 35.6 µM [inhibitor, partial curve]"
same,Potency,[5],active: 8.78 µM and active: 35.6 µM
CC(C)(C)c1cccc(C(C)(C)C)c1O,Potency,[1],"inconclusive: 67.1 µM [cytotoxic, single point]"
same,Potency,[6],"inconclusive: 75.2 µM [cytotoxic, single point]"
CC(C)(c1ccc(O)cc1)c1ccc(O)cc1,Potency,[1],"inconclusive: 67.8 µM [cytotoxic, single point]"
same,Potency,[6],inconclusive: 78.3 µM [cytotoxic]
same,Potency,[8],active: 64.4 µM
Nc1ccc2c(c1)CN1C(=O)c3ccccc3C1=N2,Potency,[1],"inconclusive: 11.6 µM [rising, partial curve]"
same,Potency,[6],"inconclusive: 13 µM [rising, partial curve]"
same,Potency,[8],active: 6.01 µM
O=C(O)CS,Potency,[1],active: 61.6 µM
same,Potency,[6],"inconclusive: 27.3 µM [cytotoxic, partial curve, poor fit]"
same,Potency,[2],"inconclusive: 69.1 µM [activator, single point]"
same,Potency,[5],"inconclusive: 40.9 µM [inhibitor, partial curve, poor fit]"
CC(CN1c2ccccc2Sc2ccccc21)N(C)C (configuration not stated),Potency,[1],"inconclusive: 69.3 µM [cytotoxic] and inconclusive: 23.7 µM [cytotoxic, partial curve]"
same,Potency,[6],"inconclusive: 69.3 µM [cytotoxic] and inconclusive: 68.6 µM [cytotoxic, single point] and inconclusive: 26.6 µM [cytotoxic, partial curve]"
same,Potency,[2],inconclusive: 24.6 µM [activator]
same,Potency,[5],active: 8.05 µM and active: 10 µM and active: 7.76 µM
O=C(c1ccc(O)cc1O)c1ccc(O)cc1O,Potency,[1],"inconclusive: 61.2 µM [cytotoxic, single point] and inconclusive: 68.6 µM [cytotoxic, single point]"
same,Potency,[6],"inconclusive: 24.3 µM [cytotoxic, partial curve]"
CN1CCN(CCCN2c3ccccc3Sc3ccc(Cl)cc32)CC1,Potency,[1],inconclusive: 29.8 µM [cytotoxic]
same,Potency,[6],"inconclusive: 16.8 µM [cytotoxic, partial curve]"
same,Potency,[2],"inconclusive: 16.8 µM [activator, partial curve]"
O=C(Nc1ccc(Cl)cc1)Nc1ccc(Cl)c(Cl)c1,Potency,[1],active: 19.2 µM and active: 17.2 µM and active: 18.8 µM
same,Potency,[6],"inconclusive: 30.5 µM [cytotoxic, single point] and inconclusive: 24.3 µM [cytotoxic, full curve] and inconclusive: 23.7 µM [cytotoxic, partial curve]"
same,Potency,[2],"inconclusive: 8.63 µM [activator] and inconclusive: 5.96 µM [activator, partial curve, poor fit]"
same,Potency,[7],inactive
same,Potency,[8],"inconclusive: 12.6 µM [inhibitor, full curve, poor fit]"
CCCCCCOc1cc(C)c(O)c(C)c1C,Potency,[1],"inconclusive: 55.1 µM [cytotoxic, partial curve]"
same,Potency,[6],"inconclusive: 69.4 µM [cytotoxic, single point]"
same,Potency,[5],active: 2.02 µM
COc1cc([C@@H]2c3cc4c(cc3[C@H](O)[C@H]3COC(=O)[C@H]23)OCO4)cc(OC)c1OC,Potency,[1],active: 8.6 nM and active: 21.1 nM
same,Potency,[6],"inconclusive: 3.06 µM [cytotoxic, single point] and inconclusive: 15 µM [cytotoxic, partial curve, poor fit]"
same,Potency,[2],"inconclusive: 2.11 µM [activator, partial curve]"
same,Potency,[3],"inconclusive: 0.1 µM [activator, full curve, poor fit]"
same,Potency,[4],"inconclusive: 0.02 µM [activator, full curve, poor fit]"
same,Potency,[7],active: 14.1 µM
same,Potency,[8],"inconclusive: 56.4 µM [inhibitor, partial curve]"
C=CC(=O)OCC(O)COc1ccccc1 (configuration not stated),Potency,[1],active: 61.1 µM
same,Potency,[6],"inconclusive: 54.5 µM [cytotoxic, partial curve]"
same,Potency,[2],inactive
CCCCCCC(C)Nc1ccc(Nc2ccccc2)cc1 (configuration not stated),Potency,[1],"inconclusive: 68.6 µM [cytotoxic, single point]"
same,Potency,[6],"inconclusive: 77 µM [cytotoxic, single point]"
same,Potency,[2],active: 21.7 µM
C=CCc1cc(S(=O)(=O)c2ccc(O)c(CC=C)c2)ccc1O,Potency,[1],"inconclusive: 68.6 µM [cytotoxic, single point]"
same,Potency,[6],"inconclusive: 68.6 µM [cytotoxic, single point]"
same,Potency,[2],"inconclusive: 2.17 µM [activator, full curve, poor fit]"
CC(C)(C)NC(=O)[C@H]1CC[C@H]2[C@@H]3CC[C@H]4NC(=O)C=C[C@]4(C)[C@H]3CC[C@]12C,Potency,[1],"inconclusive: 67.8 µM [cytotoxic, single point]"
same,Potency,[2],"inconclusive: 67.8 µM [activator, single point]"
O=C1OC2(c3ccccc31)c1cc(Br)c(O)c(Br)c1Oc1c2cc(Br)c(O)c1Br,Potency,[1],active: 6.2 µM and active: 22.3 µM and active: 11.9 µM
same,Potency,[6],active: 6.2 µM and active: 19.9 µM and active: 10.6 µM
same,Potency,[2],inactive
same,Potency,[8],"inconclusive: 28.7 µM [inhibitor, partial curve] and inconclusive: 32.6 µM [inhibitor, partial curve, poor fit]"
same,Potency,[5],"inconclusive: 73 µM [inhibitor, single point]"
O=C(c1cc(O)c(O)c(O)c1)c1ccc(O)c(O)c1O,Potency,[1],active: 48.4 µM and active: 54.5 µM and active: 29.8 µM
same,Potency,[6],"active: 54.3 µM and active: 30.6 µM and inconclusive: 29.8 µM [cytotoxic, single point]"
same,Potency,[8],"active: 31.6 µM and inconclusive: 14.2 µM [inhibitor, partial curve]"
same,Potency,[5],"active: 15.9 µM and active: 31.7 µM and inconclusive: 34.7 µM [inhibitor, partial curve]"
O=Nc1ccc(NO)cc1,Potency,[1],active: 63.6 µM
same,Potency,[6],"inconclusive: 63.6 µM [cytotoxic, partial curve]"
same,Potency,[2],"inconclusive: 50.5 µM [activator, partial curve, poor fit]"
same,Potency,[5],"inconclusive: 93 µM [inhibitor, single point]"
